Data from PubChem BioAssay AID1963576 (National Center for Advancing Translational Sciences (NCATS), 2024).
Among all 46,000 compounds or so, about 60 (0.1%) were called active. Inconclusive results (about 3%) are left out. Calls come from the whole dose curve; as a rule, active = well fitted inhibition curve with a large enough effect; inconclusive = small, poorly fitted or top-dose-only effect; inactive = no such curve, though single readings can be large or run the other way. This is one part of the list.

Assay: Primary qHTS assay for Inhibitors of ovarian cancer metastasis using an organotypic tumor microenvironment (TME) model.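 For activity change, negative = inhibition: plate controls were DMSO wells for no effect and tomatine positive control wells for full effect.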 Note: nearly all actives have a fitted effect of over 65% in size.
Conditions: SKOV3ip1-GFP adhesion/invasion on 3D omental model, fluorescence; series mostly up to 45.8 µM; activity change, negative = inhibition: at the top concentration
Method in brief: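 qHTS, 4-pt dose (0.36-46 umol/L); SKOV3ip1-GFP, 1,200 cells/well, no FBS; primary omental fibroblast/mesothelial co-culture 48 h pre-grown; 2 h RT + 16 h 37 C; PBS wash, 4% PFA; GFP count 488/509 nm.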

Activity change, negative = inhibition, inactive:
C=CCc1ccc(OCc2ccc(C(=O)Nc3ccc(NC(C)=O)cc3)o2)c(OC)c1 -10.7%
CC1CCCN(S(=O)(=O)c2ccc(N3CCCCS3(=O)=O)cc2)C1 (stereo unspecified) 8.24%
CCCN(CCC)CCNC(=O)c1sc2nc3n(c(=O)c2c1C)CCCCC3 6.04%
COc1ccc(-n2c(C)nc3cc(C(=O)NC4CCCCCC4)ccc32)cc1 2.59%
COC(=O)c1c(NC(=O)c2nc(SCc3ccccc3C)ncc2Cl)sc2c1CCCC2 -6.41%
CCC(=O)N1CCc2cc(CNS(=O)(=O)c3ccc(Br)s3)ccc21 3.72%
Cc1cc(C)cc(NC(=O)N2CCC(CN3CCc4ccccc4C3)CC2)c1 -8.03%
N#Cc1ccc(NC2=NS(=O)(=O)c3ccccc32)cc1 6.79%
Cc1ccc(NS(=O)(=O)c2ccc3[nH]c4c(c3c2)CCCCCC4)cc1 -14.6%
COc1ccc(-c2c(C)nn3c(N4CCN(c5ccccc5F)CC4)cc(C)nc23)cc1OC 8.01%
CCc1c(C)sc2c1CCN(C(=O)Nc1cc(C)ccc1OC)C2c1ccc(F)cc1 (stereo unspecified) -13.6%
CCOc1ccc(-n2c(SCC(=O)Nc3ccc4c(c3)OCCO4)nc3c([nH]c4ccccc43)c2=O)cc1 11.6%
Clc1ccccc1-c1nnc(-c2ccccc2CNc2ccc(Br)cc2)o1 -11.4%
OCCN1CCN(C(c2ccc(Cl)cc2Cl)c2sc3nc(-c4ccco4)nn3c2O)CC1 (stereo unspecified) -5.64%
CCc1nc2ccc(C(=O)NCc3ccc(SC)cc3)cc2nc1CC 31.2%
CCc1cccc(NC(=O)C2CCC(CNS(=O)(=O)c3ccc4c(c3)CCCC(=O)N4)CC2)c1 (stereo unspecified) 70.5%
Cc1cncn1CCc1nc2c3ccccc3nc(SCC(=O)Nc3ccc(F)cc3)n2n1 0.639%
CCOc1ccc(CCNC(=O)Cn2ncc3c([nH]c4ccccc43)c2=O)cc1OCC 1.79%
CCN(C(=O)Cn1c(=O)nc(-c2ccccc2)c2cc(Cl)ccc21)c1cccc(C)c1 2.23%
Cc1ccc(CNC(=O)c2sc3nc(-c4ccccc4)cn3c2C)cc1 -8.03%
O=C(CCS(=O)(=O)c1cc(Br)cc2c1N(C(=O)C1CC1)CC2)Nc1ccc(F)cc1 -2.78%
Cc1ccc(Cl)cc1N1CCN(C(=O)c2ccc3c(c2)N(Cc2ccccc2F)C(=O)c2ccccc2S3=O)CC1 (stereo unspecified) 12%
CCOc1ccccc1NC(=O)CCc1c(C)nc2c(c(C)nn2-c2ccccc2)c1C -4.11%
C#CCSc1nc(-c2ccccc2)c2cc(Cl)ccc2n1 4.29%
CC(C)c1ccc2c(c1)NC(c1ccncc1)=NC(c1cccs1)=N2 -8.28%
COc1ccc(-c2cc(OC(=O)c3ccccc3)c3c(C)oc(C)c3c(=O)c2)cc1OC 1.76%
Cc1cc(C)cc(-n2c(C)nc3cc(C(=O)NCc4ccc(F)cc4)ccc32)c1 -0.637%
Cn1nnc2c(NCc3ccccc3)ncnc21 -11.8%
CC(C)Cn1c(=O)c2ccccc2n2c(CCC(=O)NCc3ccc(Cl)cc3)nnc12 -1.7%
CC(C)(C)NC(=O)[C@H]1CN(Cc2cccnc2)CCN1C[C@@H](O)C[C@@H](Cc1ccccc1)C(=O)N[C@H]1c2ccccc2C[C@H]1O 17.7%
O=C(NCc1ccc(F)cc1)c1ccc(Cn2c(SCc3ccc(F)cc3)nc3cccnc32)cc1 -8.51%
Cn1c(=O)oc2cc(S(=O)(=O)NCCC(=O)NCc3ccc(F)cc3)ccc21 4.37%
CCCCn1c(=N)c(C(=O)NC2CCCCC2)cc2c(=O)n3cccc(C)c3nc21 23.7%
O=C(CCC(=O)N1CCSc2ccccc21)NCc1ccccc1Cl -0.83%
CCOC(=O)c1c(C)oc2nc(C)nc(NCCCN3CCN(c4ccc(F)cc4)CC3)c12 14.6%
CC(CNS(=O)(=O)c1ccc2c(c1)CC(=O)N2C)c1ccccc1 (stereo unspecified) -1.75%
Cc1ccc(C(C)C)c(OCCCn2c(=O)oc3ccccc32)c1 2.36%
Cc1ccccc1CNC(=O)c1cc2cc(S(=O)(=O)N3CCCCC3)ccc2n1C 4.47%
CCOc1ccc(C2c3c(oc4ccccc4c3=O)C(=O)N2c2nnc(C)s2)cc1OC (stereo unspecified) 16.3%
Cc1cc(N2CCN(c3cccc(C)c3C)CC2)n2nc(C)c(-c3ccc(Cl)cc3)c2n1 -1.85%
Cn1c(CNC(=O)CSc2nc(-c3cccc(Cl)c3)nc3cc(=O)[nH]n23)nc2ccccc21 1.12%
Cc1ccc(S(=O)(=O)n2nc(-c3ccco3)nc2NCc2ccccc2Cl)cc1 0.395%
CCn1c(=O)cc(OCC(=O)N2CCN(c3ccccc3OC)CC2)c2ccccc21 1.23%
Cc1ccc(CN2CCN(C3CCN(C(=O)Nc4ccccc4C(F)(F)F)CC3)C(=O)C2=O)cc1 0.175%
Cc1cc(C)c2oc(C(=O)Nc3ccc(S(=O)(=O)N4CCC(C)CC4)cc3)cc(=O)c2c1 -7.6%
Cc1cc(C)n2c(Nc3ccccc3)c(-c3ccccc3)nc2n1 -1.82%
Cc1cccc(Cn2cnc3c(cnn3-c3ccc(Cl)cc3)c2=O)c1 0.177%
CC(C)NC(=O)C1CCCN(c2ncnc3c2nc2n3CCCCC2)C1 (stereo unspecified) 13%
COc1ccc(Cl)cc1NC(=O)Cn1cnc2c1c(=O)n(C)c(=O)n2C -1.71%
CC(NC(=O)c1ccc2c(c1)N(Cc1ccc(Cl)cc1)C(=O)c1ccccc1S2=O)c1ccccc1 (stereo unspecified) -13.4%
Cc1cccc(C)c1NC(=O)CCCN1C(=O)CCn2nc(-c3cn(C)c4ccccc34)cc21 -2.28%

outcome, inactive:
Cc1ccc(C)c(N2C(=O)N(C)c3ccccc3S2(=O)=O)c1
CCOc1ccccc1CNC(=O)c1cnc2sc(N3CCOCC3)nn2c1=O
CCc1cccc(NC(=O)C(NS(=O)(=O)c2ccc3nc(C)sc3c2)C(C)C)c1 (stereo unspecified)
COc1cccc(NC(CNS(=O)(=O)c2ccc(Cl)cc2)c2ccccc2)c1 (stereo unspecified)
CCC(C)NC(=O)c1ccc2c(c1)N(Cc1ccccc1F)C(=O)c1ccccc1S2=O (stereo unspecified)
Cc1cc(C)cc(NC(=O)c2cnn(-c3ccc(C)c(C)c3)c2C2CCNCC2)c1
COc1ccc(C(=O)NCCn2cc(SCc3cc(C)ccc3C)c3ccccc32)cc1
COc1ccccc1NC(=O)c1ccc2oc(=O)c(S(=O)(=O)c3ccccc3)cc2c1
COc1ccc(-n2c(-c3ccco3)nc3c(cnn3-c3ccccc3C)c2=O)cc1
Cc1ccc(CNC(=O)CCCn2c(=O)c3ccccc3n(Cc3ccccc3C)c2=O)cc1
